83 variants from the RNAGym collection of RNA variant scans (doi:10.1073/pnas.2313332121) can be followed below.

First the molecules themselves.
B1: TPR 5TU (parent)
chain: GGAUCUUCUCGAUCUAACAAAAAAGACAAAUCUGCCACAAAGCUUGAGAGCAUCUUCGGAUGCAGAGGCGGCAGCCUUCGGUGGCGCGAUAGCGCCAACGUUCUCAACUAUGACACGCAAAACGCGUGCUCCGUUGAAUGGAGUUUAUCAUG

Variants at the background level are over-represented here. Where only a bound is given, the exact number is not on record here.

The data set covers variants of B1. Put plainly: polymerase ribozyme fitness, log enrichment relative to wild type (log ratio); higher = more active; in vitro selection for triplet polymerase activity. In outline: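 In triplicate, a single round of in vitro selection was run on each mutant library, PCR-built and transcribed, covering one subunit of a heterodimeric triplet polymerase ribozyme. Frozen incubation at −7 °C followed annealing with a biotinylated primer, partner subunit and triplets, and extended constructs were then gel-excised, streptavidin-captured and taken through RT-PCR. Fitness is the logarithm of genotype enrichment over wild-type enrichment, from inverse-variance-weighted replicate averages of Illumina-sequenced inputs and outputs. […] only genotypes with ≥10 input reads and ≥1 read per output were kept.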
For A66C U90A A91U U101G U102A G126U, the “polymerase ribozyme fitness (log ratio)” value was no more than -4.2. As for A60U G68C C87G U102A U104G, the figure is no more than -4.2; as for C72G G88U U102G A115G U139G G143U, no more than -4.2. To C75G C85G G112U G140C belongs no more than -4.2.

G68C G94A: the “polymerase ribozyme fitness (log ratio)” value was no more than -4.2. To C75G G83U C96U A147G A150U belongs no more than -4.2. As for A66U C99U, the figure is no more than -4.2; as for C63A G65C A66U G80U C87U G94C A110G C125G A137G G141C, no more than -4.2.

As to A66C A73G G80C A91C C118A, the “polymerase ribozyme fitness (log ratio)” value is no more than -4.2. As for C69A C87U G88C A97C G117C, the figure is no more than -4.2; as for A66C U135G, no more than -4.2; as for G68A G80C U102C A138U A142C, no more than -4.2.

On to C75U C99A C118G C132A A137U A142G U145A, for which the “polymerase ribozyme fitness (log ratio)” value was no more than -4.2. To A66G U77G C85G C93G G133C U144A A147C belongs no more than -4.2; to G68A C79U G84U C125U, no more than -4.2.

For the variant U61A U109C, the “polymerase ribozyme fitness (log ratio)” value is no more than -4.2. As for G71C C76G, the figure is no more than -4.2.

Turning to C72U G88U A107G G117C C118U U148A, the “polymerase ribozyme fitness (log ratio)” value was no more than -4.2. To G68A G81U G92A A137C belongs no more than -4.2. In the case of C69U U77G G86C C87U A91G G117U, the “polymerase ribozyme fitness (log ratio)” value is no more than -4.2. As to G71U G84A C96A A122G, the “polymerase ribozyme fitness (log ratio)” value was no more than -4.2. As for G62A C76U U78G C96A U146C G152U, the figure is no more than -4.2.

C72G G133U: the “polymerase ribozyme fitness (log ratio)” value was no more than -4.2. To G67A C93G G152U belongs no more than -4.2.

For C69A C75A G84C C116U G117C A150C, the “polymerase ribozyme fitness (log ratio)” value was no more than -4.2. To C72U U130G G133U belongs no more than -4.2. With A60U U77A C79U C85A, the “polymerase ribozyme fitness (log ratio)” value was no more than -4.2.

Regarding C76G G88A U102C, the “polymerase ribozyme fitness (log ratio)” value was no more than -4.2. For G68A G92C A121G A137G G143A, the “polymerase ribozyme fitness (log ratio)” value was no more than -4.2. Turning to A73U U78G C87U, the “polymerase ribozyme fitness (log ratio)” value is no more than -4.2. As for G74A G86U G88U C93U U145A, the figure is no more than -4.2. As for A66C C95U, the figure is no more than -4.2; as for U61A C87U A115G C118A, no more than -4.2.

As to C69A C79A C85G C105G G126U U144C U148A, the “polymerase ribozyme fitness (log ratio)” value is no more than -4.2. To U61A C76U U102C A106C belongs no more than -4.2; to U77A C96A A137U, no more than -4.2; to G68U C79G A107U C123A A137U A150G, no more than -4.2.

In the case of C63U U78G G88C C125G, the “polymerase ribozyme fitness (log ratio)” value was no more than -4.2. To A60U C99A A138G G143C belongs no more than -4.2; to G68A G86C G100A A115G, no more than -4.2; to C72A A91U, no more than -4.2. As for C63U G70C U144C, the figure is no more than -4.2; as for G67C U77G A89C A120C, no more than -4.2; as for U61A C99U U127A, no more than -4.2. As for G68C G84C A106G G124A, the figure is no more than -4.2; as for A64U A66C G88U A119G U148C, no more than -4.2; as for G62A A64G A73G C87G C96U C132A, no more than -4.2.

With C76A C87G A91C C118G, the “polymerase ribozyme fitness (log ratio)” value was no more than -4.2. As to G74C U134A U135C A138G, the “polymerase ribozyme fitness (log ratio)” value was no more than -4.2.

Consider C63U U77C G128U A138G U146C, for which the “polymerase ribozyme fitness (log ratio)” value is no more than -4.2. Regarding A64G A91U C125A, the “polymerase ribozyme fitness (log ratio)” value is no more than -4.2. Turning to G65C G83C G126U, the “polymerase ribozyme fitness (log ratio)” value was no more than -4.2.

With A64G G80A G84U G100U A121G C123A, the “polymerase ribozyme fitness (log ratio)” value is no more than -4.2. As for G68C C85G A98G A122U, the figure is no more than -4.2; as for U78A A121G C149U, no more than -4.2. To G67C G71C G86U C116U G133U G136U belongs no more than -4.2; to C69U A73G C129G U144C, no more than -4.2; to C72U C76A A91G C93U G124U U151G, no more than -4.2. To G68A C76U C93U U127A belongs no more than -4.2; to G65C C87U, no more than -4.2; to C72U G81U C85U A91C U101G A106U U139A, no more than -4.2. As for G70A G84A C99U C105U U148C, the “polymerase ribozyme fitness (log ratio)” value was no more than -4.2.

In the case of C63U C96U C105A A110G, the “polymerase ribozyme fitness (log ratio)” value was no more than -4.2. As for G62U A66G, the figure is no more than -4.2; as for U61C G70C G84C, no more than -4.2. To A64C U82A C103G belongs no more than -4.2. Take G71C C108G: the “polymerase ribozyme fitness (log ratio)” value is no more than -4.2. As for C76U C85G U151A, the figure is no more than -4.2. For C75A C129G, the “polymerase ribozyme fitness (log ratio)” value was no more than -4.2. To C72A G80A C96A belongs no more than -4.2.

A64C C72A C95U C116G A121C A138C: the “polymerase ribozyme fitness (log ratio)” value was no more than -4.2. As for C75G C93A C105A C114U A121U, the figure is no more than -4.2. As for U61G G62C C99U U134C, the figure is no more than -4.2; as for U61A G70U U90C U146G, no more than -4.2; as for U61A G92U A150C, no more than -4.2. As for U61A C79U G84U C85G C118U A119G C129A G143C U148G, the figure is no more than -4.2. U77G G126A: the “polymerase ribozyme fitness (log ratio)” value was no more than -4.2. With G65A C96A C103G A150U, the “polymerase ribozyme fitness (log ratio)” value is no more than -4.2.

Take C72G G84U A91U C95U A106G C114U U134A: the “polymerase ribozyme fitness (log ratio)” value is no more than -4.2. To C69A G70A G86U U90A A115G C125G A138G belongs no more than -4.2; to G68A C95U C108A, no more than -4.2; to A73C U78G G83A C95A U148A, no more than -4.2. To G65A C75G C76U C95U C105A A121U belongs no more than -4.2.
